Measurements published in ChEMBL document CHEMBL4888484, “Replenishing the malaria drug discovery pipeline: Screening and hit evaluation of the MMV Hit Generation Library 1 (HGL1) against asexual blood stage Plasmodium falciparum ,using a nano luciferase reporter read-out” (2022).
About 540 (0.36%) of roughly 150,000 compounds showed an effect of 50% or more. The list shows a part of the results.

These compounds were tested on Plasmodium falciparum (assay: Primary screen in NF54 nanoGlo assay, in single point, at 2uM, 72h; a lower Z score goes with more inhibition). Conditions: timepoint 72 hour.
Format: functional, Erythrocyte

Row | Compound | % Inhibition | Z score
1 | Cc1nc([C@H](C)NC(=O)c2cc(C(C)C)nc(N)n2)cs1 | -9% | 1.11
2 | Cc1ccc2cc3c(nc2c1)N(S(=O)(=O)c1ccccc1)CC3 | -1% | 0.08
3 | COc1cc(Cl)c(C)cc1NC(=O)CN(C)[C@@H](C)c1ccccn1 | -1% | 0.12
4 | CC1(C)CC(=O)N(c2nc3ccccc3s2)C(=O)C1 | -8% | 0.99
5 | CN(CC1(O)CCCC1)C(=O)NC1CC(c2ccc(F)c(Cl)c2)C1 (stereo not given) | -10% | 1.55
6 | COc1cccc(CNC(=O)CN2C=NS(=O)(=O)c3ccccc32)c1 | 9% | -1.06
7 | CO[C@@H](CNS(=O)(=O)c1cccnc1)c1ccccc1C | 18% | -2.33
8 | Clc1cc(CN2CCOCC3(CCC3)C2)cc2c1OCCO2 | -8% | 1
9 | CCN(CC)S(=O)(=O)c1ccc2[nH]c3nc(N)nnc3c2c1 | 4% | -0.55
10 | O=C(C[C@H]1CCCOC1)NCc1noc(-c2ccccc2)n1 | -3% | 0.5
11 | Cc1cc(Cl)ccc1CNc1nncn1C | 12% | -1.41
12 | CC(C)(CNC(=O)c1cc[nH]c1C1CCC1)C1(O)CCOCC1 | 18% | -3.42
13 | CCC(CC)C(=O)Nc1ccc(C)cc1C | 3% | -0.46
14 | CCCc1noc(CN(C)Cc2[nH]cc(C)c(=O)c2C)n1 | -12% | 1.65
15 | CCOC(=O)C1CCN(C2CCN(Cc3nc(-c4ccccc4)no3)CC2)CC1 | -7% | 1.06
16 | C[C@H](NC(=O)c1ccc(OC2CCOCC2)nc1)C(N)=O | -5% | 0.89
17 | CCn1cc(S(=O)(=O)NC(c2ccc3c(c2)CCO3)[C@H]2C[C@@H](O)C2)cn1 (stereo not given in full) | 0% | -0.08
18 | Cc1cc(NC(=O)C2CCCC2)n(-c2nc3c(cnn3-c3ccc(Cl)cc3)c(=O)[nH]2)n1 | -3% | 0.5
19 | CN(C)CCN(C1CCCCC1)S(=O)(=O)c1c[nH]c(C(=O)N2CCCC2)c1 | -9% | 1.06
20 | Cc1nc(CN2CCCN(c3nc4ccc(F)cc4o3)CC2)oc1C | -10% | 1.22
21 | COCCN(CC1(C)CCOCC1)C(=O)NCC(C)C | -1% | 0.28
22 | O=C(NCc1ccc2c(c1)OCO2)N1CCCC[C@H]1c1nc2ccccc2[nH]1 | -8% | 1.41

Row | Compound | % Inhibition | Z score
23 | CN(Cc1ccnn1C)c1ncc(F)cn1 | -9% | 1.15
24 | CCS(=O)(=O)c1ccccc1NC1CC=CC1 | 0% | -0.03
25 | C[C@@H](Cn1cncn1)NC(=O)Nc1cccc(C(=O)N2CCN(C)CC2)c1 | -6% | 1.1
26 | CC(C)CC(=O)Nc1ccc(S(=O)(=O)N(C(=O)CC(C)C)c2ncccn2)cc1 | 0% | 0.02
27 | CCCc1nc(C)cc(N2CCn3nc([C@@H](O)c4ccnn4C)cc3C2)n1 | -22% | 2.76
28 | CCCC(=O)N1CC(N2CCc3ccccc3C2)C1 | 2% | -0.34
29 | O=C(Nc1cc2cc[nH]c2cn1)[C@H]1CC[C@@H](C(=O)N2CCOCC2)O1 | -20% | 2.16
30 | CN(C)C(=O)c1cc2c(s1)CC[C@H](C(=O)NCCN1CCOCC1)C2 | 36% | -0.76
31 | O=C(CCc1ccsc1)N1CCC[C@H]1c1ncc[nH]1 | -1% | 0.15
32 | O=C(Nc1nc2ccccc2s1)c1ccc(OCc2nc(C3CC3)cs2)cc1 | -11% | 2.11
33 | CCOc1ccc(Cl)cc1CCNC(=O)[C@H](C)c1cccnc1 | 4% | -0.59
34 | Cc1cccc2nnc(N3CCC(C(=O)NCc4ccc(C(F)(F)F)cc4)CC3)n12 | -4% | 0.87
35 | CCn1nc(CC(C)C)cc1C(=O)NCCc1nc(C)c2c(n1)CCC2 | -1% | 0.16
36 | Cc1noc(C)c1S(=O)(=O)N(C)CC=Cc1ccccc1 | -8% | 1.07
37 | Cc1cccc([C@@H](NC(=O)N(C)CCO)C(F)(F)F)c1 | -3% | 0.26
38 | CC(C)c1nc(C2CCN(C(=O)[C@H]3CCNC(=O)C3)CC2)no1 | 3% | -0.47
39 | C=CCN1C(=O)C2(CCCCC2)N[C@]12C(=O)Nc1cc(O)ccc12 | -9% | 1.74
40 | Cc1nc(C)c(-c2ccc(C(=O)NCc3ccc(C(=O)N(C)C)o3)cc2)[nH]1 | -4% | 0.75
41 | COc1ccccc1C1(CNc2nccn3c(C)nnc23)CC1 | -14% | 1.28
42 | O=C(NCc1cccc2c1OCO2)c1scnc1C1CCCC1 | -10% | 1.41
43 | Cc1cc(C)c2c(NC(=O)C3CCCCC3)nn(C)c2n1 | 8% | -1.29
44 | CC(C)(C)OC(=O)N[C@@H](Cn1ccnn1)c1ccccc1 | -8% | 0.88

Row | Compound | % Inhibition | Z score
45 | COc1ccccc1C(=O)NCc1ccc2c(c1)CCN2C(=O)c1ccccc1 | -12% | 2.24
46 | O=C(N/C(=N/c1ccc(F)cc1)NCc1cccnc1)c1ccccc1 | -23% | 2.08
47 | CC(C)Oc1ccc(C2(c3nc([C@H]4CCOC4)no3)CCCC2)cc1 | 12% | -1.5
48 | Cc1cc(CN2CCN(C(=O)c3ccccc3S(C)(=O)=O)CC2)on1 | -6% | 0.96
49 | CC(C)NC[C@H](O)COc1ccc(CCOCC2CC2)cc1 [LEVOBETAXOLOL] | -16% | 2.01
50 | Cc1cc(C#N)nc(NC2CC(C)N(C3CC3)C2)n1 (stereo not given) | -19% | 1.75
51 | C[C@@]1(C(=O)NC2CCCCCCC2)Cn2c(ccc2-c2ccco2)C(=O)N1CCN1CCCCCC1 | -13% | 1.28
52 | c1ccc(-c2nc(-c3cccc4ncccc34)n[nH]2)cc1 | -4% | 0.86
53 | CCNC(=O)[C@@H]1C[C@@H](n2cc(CN(C)C(=O)c3cccc(C)c3C)nn2)CN1 | 2% | -0.34
54 | Cc1cc(F)ccc1C(=O)N[C@H]1COCC[C@@H]1O | -6% | 0.93
55 | CN(Cc1nnc[nH]1)[C@H]1CCN(C(C)(C)C)C1=O | -4% | 0.59
56 | Cc1cccc(N2C(=O)N(CC(=O)OC(C)C)S(=O)(=O)c3cccnc32)c1 | -13% | 1.29
57 | Cc1nc(N)sc1CC(=O)N[C@@H](C)C(C)(C)O | -1% | 0.16
58 | CCn1ncc(CNC(=O)N2CCO[C@@H](CCOC)C2)c1C | -11% | 1.16
59 | Cc1nc(C(C)C)ccc1C(=O)N[C@H](C)c1ncc[nH]1 | 1% | -0.13
60 | COc1cc2c(cc1OC)C1(CCCC1)CN(C(=O)CN1CCOCC1)C2 | -6% | 1.06
61 | CC(C)COC(=O)N1CCN(c2ccc(C(F)(F)F)nn2)CC1 | -1% | 0.12
62 | COCc1noc(CNS(=O)(=O)c2cccnc2)n1 | -13% | 2.41
63 | CC(=O)N1CCC([C@@H]2CN(C(=O)Nc3cc(C)ccc3C)C[C@H]2COc2ccccc2)CC1 | 8% | -0.92
64 | Cc1oc(-c2ccccc2Cl)nc1CN1CCc2nnc(C(C)C)n2CC1 | -1% | 0.08
65 | CNc1cc(C(=O)NCCCn2ccnc2)ccn1 | -13% | 1.16
66 | O=C(C1CCCO1)N1CCCC1c1cccs1 (stereo not given) | -9% | 0.96

Row | Compound | % Inhibition | Z score
67 | CC(C)(CN1CCC(c2ncon2)CC1)N1CCOCC1 | -8% | 1.53
68 | CC(C)(Oc1ccc2c(c1)CCC2)C(=O)NCc1ccon1 | -17% | 2.55
69 | Cc1ncn(CCNC(=O)N2CCC[C@H](c3nc4c(C)cccc4[nH]3)C2)c1C | 0% | -0.04
70 | Cc1cc2c(cc1CN1CC[C@]3(O)CCN(C(=O)N(C)C)C[C@@H]3C1)OCO2 | -5% | 0.94
71 | Cn1c(=O)n(C)c2cc([C@H]3CC(=O)Nc4cccc5c4c3cn5Cc3ccccc3)ccc21 | 3% | -0.65
72 | O=C1CC[C@H](C(=O)NCC2CC3CCC2C3)N1 (stereo not given in full) | -15% | 1.3
73 | N[C@H]1CCCN(Cc2cnc(C3CCCCC3)nc2)CC1 | -2% | 0.33
74 | CCCCOCCCNC(=O)c1ccccc1Cl | -7% | 0.99
75 | O=C(c1coc(-c2cccnc2)n1)N(CC(F)(F)F)C1CCC1 | 1% | -0.1
76 | Cc1cc(CS(=O)(=O)c2ccc(F)cc2)no1 | -1% | 0.09
77 | Cc1c(NC(=O)c2cccc3ccccc23)cccc1-c1nc2ncccc2o1 | -9% | 1.1
78 | CN(C)C1CCN(C(=O)c2nc(CCc3ccccc3)n(-c3ccccc3)n2)CC1 | -22% | 2.16
79 | CCCc1noc(CN(C)S(=O)(=O)N2CCC(COC)CC2)n1 | -4% | 0.82
80 | CCn1nc(NC(=O)c2cc(C3CC3)nc3onc(-c4cccc(OC)c4)c23)cc1C | 29% | -3.3
81 | COc1ccc2nc(-c3ccc(NS(=O)(=O)c4c(C)cc(C)cc4C)c(C)c3)sc2c1 | -14% | 1.91
82 | CCC(CC)(CC)C(=O)NC[C@@]12CNC[C@]1(C(F)(F)F)C2 | -9% | 1.82
83 | CC[C@H](O)Cn1nc(-c2c[nH]c3ccccc23)nc1CN1CCCCC1=O | -2% | 0.27
84 | Nc1c(-c2ccccn2)nsc1C(=O)N1CCCC1 | -12% | 2.11
85 | CCc1csc(CC2CCN(Cc3ncccn3)CC2)n1 | -5% | 1.07
